Test results published in the RNAGym collection of RNA variant scans (doi:10.7554/elife.90254).
Read counts are not given, so values of variants with three or more changes are uncertain.

B1: LINE1-mini (parent)
chain: GGCAGAGCUCAACACAGCGUGGCAAAGUGGCUGUGGCUAGACUGCC

Variants of: B1
Test: self-cleavage, relative activity (ratio to wild type); higher = more cleavage; in vitro, sequencing; the parent is a self-cleaving ribozyme

| Variant | self-cleavage |
| --- | --- |
| GGCAGAGCUCAACACAGCGUGGCACAGUGCCUAUGGCUAGACUGCC [A25C G30C G33A] | 0.06 |
| GGCAGAGAUCAACACAGCGUGGCAAAGUGGCUGUGGCGAGUCUGCC [C8A U38G A41U] | 0.22 |
| GGCAGAGCGCAACACAGCGUGGCAAAGUGGCUGUUGCUACACUGCC [U9G G35U G40C] | 0.01 |
| GGCAGCGCUCAACACAGCGUUGCAAAGUGGCUGUGGCUAGACUGUC [A6C G21U C45U] | 0.12 |
| GGCAGAGCUGAACACAGAGUGGCAAAGUGGCUGUGCCUAGACUGCC [C10G C18A G36C] | 0.03 |
| GGCAGAGCUCAACACAGCGUGGCAAUGUGAAUGUGGCUAGACUGCC [A26U G30A C31A] | 0.2 |
| UGCAGAGCUCAGUACAGCGUGGCAAAGUGACUGUCGCUAGACUGCC [G1U A12G C13U G30A G35C] | 0.02 |
| GGCUGAGCUCAACACAGCGUGGCAAAGUGGCUGUGGCAAGGCUGGC [A4U U38A A41G C45G] | 0.02 |
| GGCAUAUCGCAACACAGCGUGGCAAACUGGCUGUGUCAAGACUGCC [G5U G7U U9G G27C G36U U38A] | 0.02 |
| GGCCGCGCUCAACUCAGAGUGGCAAGGAGGCUGUGGAUAGACUGUC [A4C A6C A14U C18A A26G U28A C37A C45U] | 0.03 |
| GACAGAGCUCAACACAGCGUGGCAAGGUGGCUGUGGCAAGACUGCC [G2A A26G U38A] | 0.56 |
| AGCAUAGCUCCACACAGCGUGGCAAAGUGGCUGUGGUUAGACUGCC [G1A G5U A11C C37U] | 0.02 |
| GGCAGAGCUAAACACAGGGUGGCAAAGUGGCUGUGGGUCGACUGCC [C10A C18G C37G A39C] | 0 |
| GGCAGAGCUCAACACAGCUUGGCAAAGUGGCAGUGGCUAGACUGCU [G19U U32A C46U] | 0.01 |
| GGCAGUGCUCAAAACAGCAUGACGAAGUGGCUGGGGCUAGACUGCC [A6U C13A G19A G22A A24G U34G] | 0.05 |
| GGCAGUGCUCAAAACAGCGUGGCAAAGUGUCUGUUGCUAGACUGCC [A6U C13A G30U G35U] | 0.39 |
| GGCAGAGCCCACCACAGCGUGCCAAAGUGGCUGUGGCUAGACUGCC [U9C A12C G22C] | 0.03 |
| GGCAGAGCUCAACACAGCGCGGCAAAGUGGCUGUGAGUAGACUGCC [U20C G36A C37G] | 0.04 |
| GGGAGAGCUCAACACAGCGUGGCAAACUGGCUGUGGCUAGACUCCC [C3G G27C G44C] | 0.91 |

| Variant | self-cleavage |
| --- | --- |
| GCCAGAGCUCCACACAGCGUGGCAAAGUGGCUGUCGCUAGACUGCC [G2C A11C G35C] | 0.02 |
| GGCAGAGCUCAACACAGCUUGGCAAGGUGGCUGUGGCUAGACUGAC [G19U A26G C45A] | 0.69 |
| GGCAGACCUCAACCCAGCGUGGUAAAGUGGCUGUGGUUAGACUGCC [G7C A14C C23U C37U] | 0.01 |
| GGCCGAGCUCAACACAGCGUGGCAAAGUGGCUAUGGCUAGCCUGCC [A4C G33A A41C] | 0.03 |
| GGGAGAACUCAAAACAGCGUGGCAAAGUGGCUUUGGCUAGACUGCC [C3G G7A C13A G33U] | 0.06 |
| GGCAGACCACAACACAGCGUUGCAAAGUGGCUGUGGCUACACUGCC [G7C U9A G21U G40C] | 0.02 |
| GGCAGAGCUCAACACAGGGUGACAAAGUGGCUGAGGCUAGACUGCA [C18G G22A U34A C46A] | 0 |
| CGCAGAGCUCACCACAGCGUGCCAAAGUGGCUGCGGCUGGACUGCC [G1C A12C G22C U34C A39G] | 0 |
| GGCAGAGCUCAACACAGCGCGGUAAAGUGGGUGUAGGUAGACUGCC [U20C C23U C31G G35A C37G] | 0.02 |
| GGCAGAGCUCCACACACCGUGGCAAAGUAGCUGUGGCUAGACUGCC [A11C G17C G29A] | 0.02 |
| GGCAGAGCUAGACACAGCGUGGCAAAGUGGCUGUGCCUAGACUGCC [C10A A11G G36C] | 0.02 |
| GACAGAGCUCAACAGAGCAUGGCAAAGAGGCUCUGGCUAGACUGCC [G2A C15G G19A U28A G33C] | 0.07 |
| GGGAGAGCUCAACACAGCGUGGGAAAGUGGCUGCGGCUAGACUGUC [C3G C23G U34C C45U] | 0.05 |
| GGAAGAGCUUAACACAGCGUGGCAUAGCGUCUGUGCCUAUACUGCC [C3A C10U A25U U28C G30U G36C G40U] | 0.04 |
| GCCAGAGCUAAACUCAGCGUGGCCAAGUGGGUGUGGCUAUACUGCC [G2C C10A A14U A24C C31G G40U] | 0.01 |
| GGCCGAGCUCAAUACAGCGUGGCAAAGUGCCUGUGGCUAGACUGCC [A4C C13U G30C] | 0.08 |
| GGCAGAGCUUAACACAGCGUGGCAAAGGGGCUGGGGCUAGACUGCC [C10U U28G U34G] | 0.04 |
| GGCAGACCUCAACUCAGCGUGUCAAAGUGGUUGUGGCUAGACUGCC [G7C A14U G22U C31U] | 0.04 |
| GGCAGAGCUCAACACAGCUUGGCAAAGAGCCUGUGGCUAGACUGCU [G19U U28A G30C C46U] | 0.76 |

| Variant | self-cleavage |
| --- | --- |
| GGCAGAGUUCUACUCAGCGUGGCAAAGUGGAUGUGGCUCGUCUGCC [C8U A11U A14U C31A A39C A41U] | 0 |
| GCCAGAGCUCAACACAGCGUGGCAAAGUGGCUGUGGCUAUACUGUC [G2C G40U C45U] | 0.2 |
| GGCAGAGCUCAACACCGCGUGUCAAAGUGGCUGUGGCUAGACUGAC [A16C G22U C45A] | 0.03 |
| GGCCGAGCUCAACACAGCGUGGAAAAGUGGCUCUGGCUAGACUGCC [A4C C23A G33C] | 0.05 |
| GGUAGAACUCAACACAGAGUGGCAAAGUGGUUGUGGUUAGACUGCC [C3U G7A C18A C31U C37U] | 0.02 |
| GGUAGAGCUAAAGACAGCGUGACAAAGUGGCUGUGGCUAGACUGCA [C3U C10A C13G G22A C46A] | 0.05 |
| GCCAGAGCCCAACACAGCGUGGCAAAGUGGCUGCGGCUAGACUGCC [G2C U9C U34C] | 0.1 |
| GGCAGAGUUCAACACAGCGUGGCAAAGUGGCGGUAGCUAGACUGAC [C8U U32G G35A C45A] | 0.15 |
| GGCAGAGCUCAACAAAGCGUUGCGAAGUGGCUGUGGCUAGACUGCC [C15A G21U A24G] | 0.14 |
| AGCAGAGCUCAACACAGCGUGGCAAAGUGGCUGUGGCUAGCCUACC [G1A A41C G44A] | 0.07 |
| GCUAGAGCUCAACACUGCGUAACAAAGUGGCUGUGGCUAGACUGCC [G2C C3U A16U G21A G22A] | 0.03 |
| GGCAGAGCUCAACACAGGGUGGCACAGCGGCGGGGGCUUGACUGCC [C18G A25C U28C U32G U34G A39U] | 0.02 |
| GACGGAGCUCAACACAGCGUGUCAUAGUGGCUGUGGCUAGACUGCC [G2A A4G G22U A25U] | 0.23 |
| GGCUGAUCUCAACACAGCGUGGAAAAGUGGCUGUGGCUAGACUGCC [A4U G7U C23A] | 0.06 |
| GGCAGAGCUCAACACAGCGUGGCAAAGUGGCUGUGGCUUGAUUGAC [A39U C42U C45A] | 0.06 |
| GACAGAGCUCAACACAGCGUGGCAAUGUGGCUGGGGCUAGACUGCC [G2A A26U U34G] | 0.25 |
| GGCAGAGCUCAACAUAGCUUGGCAAAGUGGCUGUCGCUAGACUUCC [C15U G19U G35C G44U] | 0.06 |
| AGCAGAGCUCAACACUGCAUGGCAAAGUGGCUGUGGCUCGAGUGCU [G1A A16U G19A A39C C42G C46U] | 0.02 |
